Some of the results follow. Sequences were assembled here from the parent chain. Values near 0.05 are background.

To fix the notation:
B1: TEV protease; numbered along this chain (parent)
chain: MGESLFKGPRDYNPISSSICHLTNESDGHTTSLYGIGFGPFIITNKHLFRRNNGTLVVQSLHGVFKVKDTTTLQQHLVDGRDMIIIRMPKDFPPFPQKLKFREPQREERICLVTTNFQTKSMSSMVSDTSCTFPSGDGIFWKHWIQTKDGQCGSPLVSTRDGFIVGIHSASNFTNTNNYFTSVPKNFMELLTNQEAQQWVSGWRLNADSVLWGGHKVFMVKPEEPFQPVKEATQL

This assay covers variants of B1. Kind of assay: raw area under fraction-flipped curve 0-4 h after induction (AUC4h, not background-subtracted), DNA-recorder readout of cleavage of the substrate (dimensionless); higher = more cleavage of the substrate by the protease variant. The conditions noted are these: temperature: 34 °C; time window: 0-4 h after rhamnose induction. Here is the method: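 In vivo DNA recorder in E. coli TOP10(DE3) ΔrhaA at 34 °C. Each TEVp single-site mutant (parent TEVp 0) is paired with a single-site variant of the 7-mer TEVs (canonical ENLYFQ|S). The substrate sits between flexible linkers in a Bxb1-sfGFP-TEVs-SsrA fusion, so cleavage stabilises Bxb1 and speeds flipping of a recombination array, read by NGS. The value is the raw area under the fraction-flipped curve over 0-4 h after rhamnose induction (AUC4h), with ≥20 reads per time point. It is not background-subtracted; inactive controls average about 0.047.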
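Also: Bxb1 expression induced with 0.2% (w/v) L-rhamnose at OD600 near 0.5, cultures sampled hourly, flipped fraction per protease–substrate barcode pair counted by paired-end Illumina sequencing.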

As for MGESLFKGPRDYNPISSSICHLTNESDGHTTSLYGIGFGPFIITNKHLFRRNNGTLVVQSLHGVFKVKDTTTLQQHLVDGRDMIIIRMPKDFPPFPQKLKFREPQREERICLVTTNFQTKSMSSMVSDTSCTFPSGNGIFWKHWIQTKDGQCGSPLVSTRDGFIVGIHSASNFTNTNNYFTSVPKNFMELLTNQEAQQWVSGWRLNADSVLWGGHKVFMVKPEEPFQPVKEATQL [D137N], the “area with substrate ENAYFQS” value was determined as 0.0696, the “area with substrate ENCYFQS” value is 0.0744, the “area with substrate ENDYFQS” value turned out to be 0.0637 and the “area with substrate ENEYFQS” value worked out at 0.0574. Further, the “area with substrate ENFYFQS” value came to 0.0731, the “area with substrate ENGYFQS” value amounted to 0.0561, the “area with substrate ENIYFQS” value is 0.113 and the “area with substrate ENKYFQS” value was 0.07. The “area with substrate ENMYFQS” value was found to be 0.0907, the “area with substrate ENNYFQS” value was 0.0706, the “area with substrate ENPYFQS” value is 0.0499 and the “area with substrate ENQYFQS” value was determined as 0.0603. Besides, the “area with substrate ENRYFQS” value was 0.0585, the “area with substrate ENSYFQS” value amounted to 0.0622, the “area with substrate ENTYFQS” value was determined as 0.0662 and the “area with substrate ENVYFQS” value amounted to 0.071. Moreover, the “area with substrate ENWYFQS” value stood at 0.0375 and the “area with substrate ENYYFQS” value is 0.0786.
In the case of MGESLFKGPRDYNPISSSICHLTNESDGHTTSLYGIGFGPFIITNKHLFRRNNGTLVVQSLHGVFKVKDTTTLQQHLVDGRDMIIIRMPKDFPPFPQKLKFREPQREERICLVTTNFQTKSMSSMVSDTSCTFPSGRGIFWKHWIQTKDGQCGSPLVSTRDGFIVGIHSASNFTNTNNYFTSVPKNFMELLTNQEAQQWVSGWRLNADSVLWGGHKVFMVKPEEPFQPVKEATQL [D137R], the “area with substrate ENAYFQS” value was found to be 0.0666, the “area with substrate ENCYFQS” value is 0.0442, the “area with substrate ENDYFQS” value is 0.0703 and the “area with substrate ENEYFQS” value came out at 0.0685. The “area with substrate ENFYFQS” value stood at 0.048, the “area with substrate ENHYFQS” value was 0.0511, the “area with substrate ENIYFQS” value stood at 0.0797 and the “area with substrate ENNYFQS” value was determined as 0.0722. For the same variant, the “area with substrate ENQYFQS” value worked out at 0.0434, the “area with substrate ENSYFQS” value amounted to 0.065, the “area with substrate ENVYFQS” value came out at 0.0639 and the “area with substrate ENWYFQS” value is 0.0859. The “area with substrate ENYYFQS” value was 0.0517.
On to MGESLFKGPRDYNPISSSICHLTNESDGHTTSLYGIGFGPFIITNKHLFRRNNGTLVVQSLHGVFKVKDTTTLQQHLVDGRDMIIIRMPKDFPPFPQKLKFREPQREERICLVTTNFQTKSMSSMVSDTSCTEPSGDGIFWKHWIQTKDGQCGSPLVSTRDGFIVGIHSASNFTNTNNYFTSVPKNFMELLTNQEAQQWVSGWRLNADSVLWGGHKVFMVKPEEPFQPVKEATQL [F133E], for which the “area with substrate ENAYFQS” value came to 0.0715, the “area with substrate ENDYFQS” value was 0.0659, the “area with substrate ENEYFQS” value came to 0.0541 and the “area with substrate ENFYFQS” value was determined as 0.0754. Also, the “area with substrate ENGYFQS” value was determined as 0.0683, the “area with substrate ENHYFQS” value came out at 0.0544, the “area with substrate ENIYFQS” value came to 0.0982 and the “area with substrate ENMYFQS” value came to 0.0939. Moreover, the “area with substrate ENNYFQS” value is 0.0612, the “area with substrate ENQYFQS” value worked out at 0.0645, the “area with substrate ENSYFQS” value worked out at 0.066 and the “area with substrate ENTYFQS” value was 0.0738. The “area with substrate ENVYFQS” value came out at 0.0937 and the “area with substrate ENYYFQS” value worked out at 0.0718.
MGESLFKGPRDYNPISSSICHLTNESDGHTTSLYGIGFGPFIITNKHLFRRNNGTLVVQSLHGVFKVKDTTTLQQHLVDGRDMIIIRMPKDFPPFPQKLKFREPQREERICLVTTNFQTKSMSSMVSDISCTFPSGDGIFWKHWIQTKDGQCGSPLVSTRDGFIVGIHSASNFTNTNNYFTSVPKNFMELLTNQEAQQWVSGWRLNADSVLWGGHKVFMVKPEEPFQPVKEATQL [T129I]: the “area with substrate ENAYFQS” value is 0.0674, the “area with substrate ENCYFQS” value worked out at 0.0655, the “area with substrate ENDYFQS” value amounted to 0.0432 and the “area with substrate ENFYFQS” value was determined as 0.0474. Also, the “area with substrate ENGYFQS” value is 0.057, the “area with substrate ENQYFQS” value was determined as 0.0547, the “area with substrate ENRYFQS” value worked out at 0.0491 and the “area with substrate ENSYFQS” value was determined as 0.0674. Further, the “area with substrate ENTYFQS” value turned out to be 0.067.
Regarding MGESLFKGPRDYNPISSSICHLTNESDGHTTSLYGIGFGPFIITNKHLFRRNNGTLVVQSLHGVFKVKDTTTLQQHLVDGRDMIIIRMPKDFPPFPQKLKFREPQREERICLVTTNFQTKSMSSMVSDWSCTFPSGDGIFWKHWIQTKDGQCGSPLVSTRDGFIVGIHSASNFTNTNNYFTSVPKNFMELLTNQEAQQWVSGWRLNADSVLWGGHKVFMVKPEEPFQPVKEATQL [T129W], the “area with substrate ENAYFQS” value came to 0.0667, the “area with substrate ENCYFQS” value is 0.0609, the “area with substrate ENDYFQS” value amounted to 0.0589 and the “area with substrate ENEYFQS” value came out at 0.0547. Moreover, the “area with substrate ENFYFQS” value came to 0.057, the “area with substrate ENGYFQS” value was 0.0642, the “area with substrate ENHYFQS” value stood at 0.0641 and the “area with substrate ENIYFQS” value amounted to 0.113. The “area with substrate ENKYFQS” value is 0.0534, the “area with substrate ENPYFQS” value was 0.0574, the “area with substrate ENQYFQS” value is 0.056 and the “area with substrate ENRYFQS” value came to 0.0531. Moreover, the “area with substrate ENSYFQS” value came to 0.0685, the “area with substrate ENTYFQS” value is 0.0794, the “area with substrate ENVYFQS” value was found to be 0.0715 and the “area with substrate ENWYFQS” value was 0.0606.
Take MGESLFKGPRDYNPISSSICHLTNESDGHTTSLYGIGFGPFIITNKHLFRRNNGTLVVQSLHGVFKVKDTTTLQQHLVDGRDMIIIRMPKDFPPFPQKLKFREPQREERICLVTTNFQTKSMSSMVSDTSCTFPAGDGIFWKHWIQTKDGQCGSPLVSTRDGFIVGIHSASNFTNTNNYFTSVPKNFMELLTNQEAQQWVSGWRLNADSVLWGGHKVFMVKPEEPFQPVKEATQL [S135A]: the “area with substrate ENAYFQS” value stood at 0.0263, the “area with substrate ENCYFQS” value came to 0.0662, the “area with substrate ENDYFQS” value came to 0.0631 and the “area with substrate ENEYFQS” value worked out at 0.062. Moreover, the “area with substrate ENGYFQS” value worked out at 0.0525, the “area with substrate ENHYFQS” value worked out at 0.0562, the “area with substrate ENIYFQS” value was 0.0678 and the “area with substrate ENKYFQS” value is 0.064. The “area with substrate ENMYFQS” value came to 0.0578, the “area with substrate ENNYFQS” value was 0.0556, the “area with substrate ENPYFQS” value stood at 0.0532 and the “area with substrate ENQYFQS” value was 0.0529. The “area with substrate ENRYFQS” value stood at 0.0621, the “area with substrate ENSYFQS” value stood at 0.0578, the “area with substrate ENTYFQS” value turned out to be 0.0745 and the “area with substrate ENVYFQS” value came to 0.0669. In addition, the “area with substrate ENWYFQS” value stood at 0.0543.
On to MGESLFKGPRDYNPISSSICHLTNESDGHTTSLYGIGFGPFIITNKHLFRRNNGTLVVQSLHGVFKVKDTTTLQQHLVDGRDMIIIRMPKDFPPFPQKLKFREPQREERICLVTTNFQTKSMSSMVSDTSCTFPSGDGSFWKHWIQTKDGQCGSPLVSTRDGFIVGIHSASNFTNTNNYFTSVPKNFMELLTNQEAQQWVSGWRLNADSVLWGGHKVFMVKPEEPFQPVKEATQL [I139S], for which the “area with substrate ENAYFQS” value was 0.0817, the “area with substrate ENCYFQS” value worked out at 0.0548, the “area with substrate ENDYFQS” value amounted to 0.0575 and the “area with substrate ENEYFQS” value is 0.062. In addition, the “area with substrate ENGYFQS” value came to 0.0505, the “area with substrate ENIYFQS” value was 0.129, the “area with substrate ENKYFQS” value was 0.0455 and the “area with substrate ENMYFQS” value was 0.0856. The “area with substrate ENNYFQS” value came to 0.0642, the “area with substrate ENQYFQS” value is 0.0627, the “area with substrate ENRYFQS” value was found to be 0.0587 and the “area with substrate ENSYFQS” value is 0.0568. The “area with substrate ENWYFQS” value was 0.0546 and the “area with substrate ENYYFQS” value turned out to be 0.08.
MGESLFKGPRDYNPISSSICHLTNESDGHTTSLYGIGFGPFIITNKHLFRRNNGTLVVQSLHGVFKVKDTTTLQQHLVDGRDMIIIRMPKDFPPFPQKLKFREPQREERICLVTTNFQTKSMSSMVSDTSCTFPSGDGAFWKHWIQTKDGQCGSPLVSTRDGFIVGIHSASNFTNTNNYFTSVPKNFMELLTNQEAQQWVSGWRLNADSVLWGGHKVFMVKPEEPFQPVKEATQL [I139A]: the “area with substrate ENAYFQS” value came out at 0.0686, the “area with substrate ENDYFQS” value amounted to 0.0511, the “area with substrate ENEYFQS” value turned out to be 0.0495 and the “area with substrate ENHYFQS” value is 0.182. Moreover, the “area with substrate ENMYFQS” value was 0.0818, the “area with substrate ENNYFQS” value is 0.0604, the “area with substrate ENQYFQS” value came out at 0.0665 and the “area with substrate ENSYFQS” value came to 0.07. Also, the “area with substrate ENVYFQS” value is 0.0545 and the “area with substrate ENYYFQS” value was 0.048.
For MGESLFKGPRDYNPISSSICHLTNESDGHTTSLYGIGFGPFIITNKHLFRRNNGTLVVQSLHGVFKVKDTTTLQQHLVDGRDMIIIRMPKDFPPFPQKLKFREPQREERICLVTTNFQTKSMSSMVSDTSCVFPSGDGIFWKHWIQTKDGQCGSPLVSTRDGFIVGIHSASNFTNTNNYFTSVPKNFMELLTNQEAQQWVSGWRLNADSVLWGGHKVFMVKPEEPFQPVKEATQL [T132V], the “area with substrate ENAYFQS” value was 0.0726, the “area with substrate ENCYFQS” value turned out to be 0.0632, the “area with substrate ENDYFQS” value stood at 0.0633 and the “area with substrate ENEYFQS” value came out at 0.0753. For the same variant, the “area with substrate ENFYFQS” value worked out at 0.0696, the “area with substrate ENGYFQS” value came out at 0.059, the “area with substrate ENHYFQS” value worked out at 0.0606 and the “area with substrate ENIYFQS” value amounted to 0.109. Further, the “area with substrate ENKYFQS” value was found to be 0.059, the “area with substrate ENMYFQS” value is 0.0713, the “area with substrate ENNYFQS” value came out at 0.0567 and the “area with substrate ENPYFQS” value worked out at 0.0553. Besides, the “area with substrate ENQYFQS” value was 0.0596, the “area with substrate ENSYFQS” value came to 0.0553, the “area with substrate ENTYFQS” value amounted to 0.0669 and the “area with substrate ENVYFQS” value was found to be 0.0711. The “area with substrate ENYYFQS” value amounted to 0.0613.

The values above are taken from the supplement of paper PMC12217912.
